Measured values as given in the RNAGym collection of RNA variant scans (doi:10.1101/gad.245936.114).
Variants at the background level are over-represented here.

B1: tRNA (parent)
chain: CUCUCGGUAGCCAAGUUGGUUUAAGGCGCAAGACUUUAAUUUAUCACUACGAAAUCUUGAGAUCGGGCGUUCGACUCGCCCCCGGGAGAUUUUUUCCUCGAGCAA

Variants of: B1
Experiment: nonsense suppression (GFP-seq) (ratio to wild type); higher = more function; SUP4oc tRNA, yeast GFP reporter sort-seq
Summary of the method: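 Each variant's nonsense suppression (GFPSEQ) is a cell-share-weighted bin median GFP/RFP relative to the unmutated parent tRNA. Yeast with genome-integrated tRNA variants from a ~3% random-mutation library, a galactose-driven GFP ochre reporter and RFP were grown in raffinose/galactose medium with 80 mg/L adenine, then sorted into GFP/RFP bins for Illumina sequencing. Variants needed ≥100 reads and ≥30 cells.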

Variant | nonsense suppression
CUCUCGGUAGCCAAGUUAGUUUAGGGCGCAAGACUUUAAUUUAUCACUACGAAAUCUUGAGAUCGGGCGUUCGACUCGCCCCCGGGAGAUUUUUUCCUCGAGCAA [G18A A24G] | ≤ 0.026
CUCUCGGUAGCCAAGUUAGUUUAGGGCGCUAGACUUUAAUUUAUCACUACGAAAUCUUGAGAUCGUGCGUUCGACUCGCCCCCGGGAGAUUUUUUCCUCGAGCAA [G18A A24G A30U G66U] | ≤ 0.026
CUCUCGGUAGCCAAGUUAGUUUAAGGCGCUAGACUUUAAUUUAUCACUACGAAAUCUUGAGAUCGGGCGUUCGACUCGCCCCCGGGAGAUUUUUUCCUCGAGCAA [G18A A30U] | 0.0262
CUCUCGGUAGCCAAGUUAGUUUAAGGCGCUAGACUUUAAUUUAUCACUACGAAAUCUUUCUAUCGGGCGUCCGACUCGCCCCCGGGAGAUUUUUUCCUCGAGCAA [G18A A30U G59U A60C G61U U71C] | ≤ 0.026
CUCUCGGUAGCCAAGUUAGUUUAAGGCGCAAGACUUUAAUUUAUCACUACGAAUUCUUGAGAUCGGGCGUUCGACUCGCCCCCGGGAGAUUUUUUCCUCGAGCAA [G18A A54U] | ≤ 0.026
CUCUCGGUAGCCAAGUUAGUUUAAGGCGCAAGACUUUAAUUUAUCACUACGAAAUCUUGAGGUCGGGCGUUCGAUUCGCCCCCGGGAGAUUUUUUCCUCGAGCAA [G18A A62G C75U] | ≤ 0.026
CUCUCGGUAGCCAAGUUAGUUUAAGGCGCAAGACUUUAAUUUAUCACUACGAAAUCUUGAGAUCGGGCGUUCGGCUCGCCCCCGGGAGAUUUUUUCCUCGAGCAA [G18A A74G] | ≤ 0.026
CUCUCGGUAGCCAAGUUAGUUUAAGGCGCAAGACUUUAAUUUAUCACUACGAAAUCUUGAGAUCGGGCGUUCGACUCGCCCCCGGGAGCUUUUUUCCUCGAGCAA [G18A A89C] | ≤ 0.026
CUCUCGGUAGCCAAGUUAGUUUAAGGGGCAAGACUUUAAUUUAUCACUACGAAAUCUUGAGAUCGGGCGUUCGACUCGCCCCCGGGAGAUUUUUUCCUCGAGCAA [G18A C27G] | ≤ 0.026
CUCUCGGUAGCCAAGUUAGUUUAAGGCGGAAGACUUUAAUUUAUCACUACGAAAUCUUGAGAUCGGGCCUUCGACUCGCCCCCGGGAGAUUUUUUCCUCGAGCAA [G18A C29G G69C] | ≤ 0.026
CUCUCGGUAGCCAAGUUAGUUUAAGGCGCAAGAUUUUAAUUUAUCACUACGAAAUCUUGAGAUCGGGCGUUCGACUCGCCCCCGGGAGAUUUUUUCCUCGAGCAA [G18A C34U] | ≤ 0.026
CUCUCGGUAGCCAAGUUAGUUUAAGGCGCAAGAUUUUAAUUUAUCACUACGAAAUCUUGAGAACGGGCAUUCGACUCGCCCCCGGGAGAUUUUUUCCUCGAGCAA [G18A C34U U63A G69A] | ≤ 0.026
CUCUCGGUAGCCAAGUUAGUUUAAGGCGCAAGACUUUAAUUUAUCACUACGAAAUAUUAAGAUCGGGCGUUCGACUCGCCCCCGGGAGAUUUUUUCCUCGAGCAA [G18A C56A G59A] | ≤ 0.026
CUCUCGGUAGCCAAGUUAGUUUAAGGCGCAAGACUUUAAUUUAUCACUACGAAAUAUUGAGAUCGUGCGUUCGACUCGCCCCCGGGAGAUUUUUUCCUCGAGCAA [G18A C56A G66U] | ≤ 0.026
CUCUCGGUAGCCAAGUUAGUUUAAGGCGCAAGACUUUAAUUUAUCACUACGAAAUAUUGAGAUCGGGCGUCCGACUCGCCCCCGAGAGAUUUUUUCCUCGAGCAA [G18A C56A U71C G85A] | ≤ 0.026
CUCUCGGUAGCCAAGUUAGUUUAAGGCGCAAGACUUUAAUUUAUCACUACGAAAUGUGGAGAUCGGGCGUGCGACUUGCCCCCGGGAGAUUUUUUCCUCGAGCAA [G18A C56G U58G U71G C77U] | ≤ 0.026
CUCUCGGUAGCCAAGUUAGUUUAAGGCGCAAGACUUUAAUUUAUCACUACGAAAUCUUGAGAUAGGGCGUCCGAGUCGCCCCCGGGAGAUUUUUUCCUCGAGCAA [G18A C64A U71C C75G] | ≤ 0.026
CUCUCGGUAGCCAAGUUAGUUUAAGGCGCAAGACUUUAAUUUAUCACUACGAAAUCUUGAGAUCGGGCGUUCGACUCGACCCCGGGAGAUUUUUUCCUCGAGCAA [G18A C79A] | ≤ 0.026
CUCUCGGUAGCCAAGUUAGUUUAAGGCGCAAGACUUUAAUUUAUCACUACGAAAUCUUGAGAUCGGGCGUUCGACUCGACCCCGGAAGAUUUUUUCCUCGAGCAA [G18A C79A G86A] | ≤ 0.026
CUCUCGGUAGCCAAGUUAGUUUAAGGCGCAAGACUUUAAUUUAUCACUACGAAAUCUUGAGAUCGGGCGUUCGACUCGGCCCCGGGAGAUUUUUUCCUCGAGCAA [G18A C79G] | ≤ 0.026
CUCUCGGUAGCCAAGUUAGUUUAAGGCGCAAGACUUUAAUUUAUCACUACGAAAUCUUGAGAUCGGGCGUUCGACUCGCCCGCGGGAGAUUUUUUCCUCGAGCAA [G18A C82G] | ≤ 0.026
CUCUCGGUAGCCAAGUUAAUUUAAGGCGCAAGACUUUAAUUUAUCACUACGAAAUCUUGAGAUCGGGCGCUCGACUCGCCCCCGGGAGAUUUUUUCCUCGAGCAA [G18A G19A U70C] | ≤ 0.026
CUCUCGGUAGCCAAGUUAGUUUAAUGCGCAAGACUUUAAUUUAUCACUACGAAAUCUUGAGAUCGGGCGUUCGACUCGCCCCCGGCAGAUUUUUUCCUCGAGCAA [G18A G25U G86C] | ≤ 0.026
CUCUCGGUAGCCAAGUUAGUUUAAGUCGCAAGACUUUAAUUUAUCACUACGAAAUCUUGAGAUCGGGCGUUCGACUCGCCCCCGGGAGAUUUUUUCCUCGAGCAA [G18A G26U] | ≤ 0.026
CUCUCGGUAGCCAAGUUAGUUUAAGGCGCAACACUUUAAUUUAUCACUACGAAAUCUUGAGAUCGGGCGUUCGACUCGCCCCCGGGAGAUUUUUUCCUCGAGCAA [G18A G32C] | ≤ 0.026
CUCUCGGUAGCCAAGUUAGUUUAAGGCGCAAUACUUUAAUUUAUCACUACGAAAUCUUGAGAUCGGGCGUUCGACUCGCCCCCGGGAGAUUUUUUCCUCGAGCAA [G18A G32U] | ≤ 0.026
CUCUCGGUAGCCAAGUUAGUUUAAGGCGCAAGACUUUAAUUUAUCACUACGAAAUCUUGAGAUCCGGCGUUCGACUCGCCCCCGGGAGCUUUUUUCCUCGAGCAA [G18A G65C A89C] | ≤ 0.026
